Measured values reported in PubChem BioAssay AID504832 (National Center for Advancing Translational Sciences (NCATS), 2011).
Hit rate of the full screen: of about 310,000 compounds, about 18,000 (5.8%) were called active. Inconclusive results, whose numbers are uncertain, are shown with a selection of clear calls. The call rests on the fitted dose curve; in most records, active means well fitted inhibition curve with a large enough effect; inconclusive means small, poorly fitted or top-dose-only effect, or another doubt; inactive means no such curve, though single readings can be large or run the other way. Potencies of inconclusive entries are left out as doubtful fits.

Test: Primary qHTS for delayed death inhibitors of the malarial parasite plastid, 48 hour incubation
Conditions: P. falciparum luciferase growth in erythrocytes; series mostly up to 28.7 µM; activity change, negative = inhibition: at the top concentration
Outline: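 Read-out is firefly luciferase luminescence from an integrated reporter in P. falciparum, so falling signal marks reduced parasite growth. Infected erythrocytes were at 2% hematocrit and 0.1% parasitemia (final) in Albumax-supplemented RPMI 1640.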
On the % scale 0 is the no-effect control and ±100 the full control effect; potency means the concentration at half of the fitted maximal effect; tags describe the fitted curve by direction and shape.

| Structure (SMILES) | Potency | activity change, negative = inhibition |
| --- | --- | --- |
| COc1ccc(OC)c(NC(=O)CNC(c2ccccc2)c2ccccc2)c1 | active: 11.7 µM | – |
| COc1ccc(C2=NOC(COc3ccc4c(C)cc(=O)oc4c3)C2)c(OC)c1 (centres undefined) | inconclusive [inhibitor, single point] | – |
| COc1cc(/C=C2/C(=N)N3N=C(CC(=O)N4CCOCC4)SC3=NC2=O)ccc1OCc1ccc(F)cc1 | – | inactive: 2.79% |
| Cc1cc(C)c(NC(=O)c2ccc[n+](Cc3ccc([N+](=O)[O-])cc3)c2)c(C)c1 | – | inactive: -11.4% |
| Clc1nc(CN2CCCCC2)nc2sc3c(c12)CCC3 | – | inactive: -15.7% |
| O=C(CN1CCN(C2CCCCC2)CC1)Nc1ccccc1N1CCCCC1 | inconclusive [inhibitor, partial curve, poor fit] | – |
| CN(C(=O)COC(=O)c1ccccc1OCc1ccc(Cl)cc1)c1c(N)n(Cc2ccccc2)c(=O)[nH]c1=O | inconclusive [inhibitor, single point] | – |
| Cc1ccc(NC(=S)/N=C(\N)Nc2nc(C)c3ccccc3n2)cc1C | active: 11.7 µM | – |
| Cc1cccc(OCCC(=O)Nc2ccc(Cl)cc2F)c1 | – | inactive: 10.6% |
| CCN(CC)S(=O)(=O)N1CCC(C(=O)NCCN2CCOCC2)CC1 | inconclusive [inhibitor, full curve] | – |
| O=C(CNC(=O)c1ccc(Cl)cc1)OCC(=O)N1CCCC1 | – | inactive: 22.3% |
| CCCOC(=O)Nc1ccc([As](=O)(O)O)cc1NC(=O)OCCC | inconclusive [inhibitor, full curve, poor fit] | – |
| CCN1CCN(C(=O)CCc2nnc(CCc3ccccc3OC)o2)[C@@H](C)C1=O | – | inactive: -8.12% |
| CC(C)(C)c1cc(C(=O)N/N=C/c2ccc(O)cc2)n(-c2ccccc2)n1 | active: 9.28 µM | – |
| COc1ccc(N2CCN(c3nc(-c4cccs4)nc4ccccc34)CC2)cc1 | inconclusive [inhibitor, single point] | – |
| C[C@H](NC(=O)c1ccccc1Cl)C(=O)OCC(=O)N1CCN(c2ccccc2)CC1 | – | inactive: -12.6% |
| COCC(C)n1c(C)cc(C(=O)CSc2nnc(Nc3ccccc3F)s2)c1C (centres undefined) | active: 1.47 µM | – |
| Cc1cc(C(=O)N2CCCC(Nc3ccc(C(C)C)cc3)C2)nn1C (centres undefined) | inconclusive [inhibitor, single point] | – |
| Cc1ccc(C2CC(=O)N(c3ccc(F)cc3)C3=C2C(=O)CCC3)cc1 (centres undefined) | inconclusive [inhibitor, full curve] | – |
| CCc1nc(N2CCCC2)c(C#N)c2c1CCCC2 | – | inactive: -1.23% |
| O=S(=O)(c1ccc2c(c1)OCCO2)N1CCN(c2nc(-c3cccnc3)nc3ccccc23)CC1 | inconclusive [inhibitor, partial curve] | – |
| COc1ccc(COc2cccc(C=O)c2)cc1 | – | inactive: 133% |
| Cc1cc(C)cc(C(=O)N(C)C2CCCN(Cc3ccccc3F)C2)c1 (centres undefined) | inconclusive [inhibitor, full curve, poor fit] | – |

| Structure (SMILES) | Potency | activity change, negative = inhibition |
| --- | --- | --- |
| CCOC(=O)C1(C)NC(c2cccs2)C2C(=O)N(c3ccccc3)C(=O)C21 (centres undefined) | inconclusive [inhibitor, full curve, poor fit] | – |
| CN(CC(=O)Nc1ccc(F)cc1)C(=O)Cn1cnc2ccc(Cl)cc2c1=O | inconclusive [inhibitor, single point] | – |
| COc1ccc2c(c1)C1=NN(/C(C)=C/C(C)=O)C(c3cccc(F)c3)C1CC2 (centres undefined) | inconclusive [inhibitor, single point] | – |
| CCc1nnc(NC(=O)c2ccc(-c3ccc(C(C)=O)cc3)o2)s1 | – | inactive: -14.8% |
| Cc1cccc(N2CCN(C(=O)C3CCN(S(=O)(=O)c4c(C)noc4C)CC3)CC2)c1C | inconclusive [inhibitor, partial curve] | – |
| Cc1ccc(C2C3CN(C(C)C)CC=C3C(C#N)=C(N)C2(C#N)C#N)cc1 (centres undefined) | active: 8.28 µM | – |
| Cc1cccn2c(=O)c3cc(C(=O)NC4CCCCC4)sc3nc12 | – | inactive: 0% |
| COc1ccc(-c2nc3c(-c4ccc(Cl)cc4)cnn3cc2C)cc1F | inconclusive [inhibitor, partial curve, poor fit] | – |
| O=C(/C=C/c1ccccc1)NNC(=O)c1cccs1 | – | inactive: 59.1% |
| COc1ccc(CCNC(=O)c2ccc(NS(=O)(=O)c3ccc4[nH]c(=O)[nH]c4c3)cc2)cc1 | inconclusive [inhibitor, single point] | – |
| CCc1ccc2c(c1)CCCN2C(=O)c1ccccc1C(=O)O | inconclusive [inhibitor, single point] | – |
| COC(=O)c1c(C)[nH]c(/C=N/Nc2ccccc2)c1C | active: 5.22 µM | – |
| Cc1ccc(-n2c(C)cc(C(=O)COC(=O)c3ccc[nH]c3=O)c2C)cc1 | – | inactive: 12.3% |
| O=C(Nc1ccc(S(=O)(=O)N2CCCCC2)cc1)C1CCCCC1 | inconclusive [inhibitor, single point] | – |
| Cc1nc(NC(=O)c2ccccc2)sc1-c1csc(Nc2ccc(Cl)cc2)n1 | inconclusive [inhibitor, partial curve, poor fit] | – |
| CC(C)c1ccc(-n2cccc2/C=C2/C(=N)N3C=CSC3=NC2=O)cc1 | inconclusive [inhibitor, single point] | – |
| COC(=O)N/N=C\C=C\c1ccc2c(c1)OCO2 | – | inactive: -5.5% |
| COC(=O)c1ccc(C)c(NC(=O)CN(c2cc(OC)ccc2OC)S(C)(=O)=O)c1 | inconclusive [inhibitor, full curve, poor fit] | – |
| CCn1c(=NC(=O)c2cccc(N3C(=O)CCC3=O)c2)sc2c(C)ccc(OC)c21 | – | inactive: -16.2% |
| CCN(CC)c1ccc(NC(=O)Nc2ccccc2C(F)(F)F)cc1 | inconclusive [inhibitor, single point] | – |
| OC1C2(Cc3ccccc3)CN3CCN(C2)CC1(Cc1ccccc1)C3 (centres undefined) | inconclusive [inhibitor, partial curve, poor fit] | – |
| CN(CC(=O)Nc1ccccc1Cl)C(=O)c1ccc(-c2cccc(C(F)(F)F)c2)o1 | active: 2.08 µM | – |
| Brc1ccc(-c2nnc3ccc(N4CCN(c5ccccc5)CC4)nn23)cc1 | inconclusive [inhibitor, single point] | – |

| Structure (SMILES) | Potency | activity change, negative = inhibition |
| --- | --- | --- |
| C=CCn1c(C)cc(C(=O)CSc2nnc(NC(C)C)s2)c1C | inconclusive [inhibitor, single point] | – |
| O=C(COC(=O)/C=C/c1ccc(C(F)(F)F)cc1)Nc1ccc2[nH]c(=O)[nH]c2c1 | – | inactive: 0.0447% |
| COCCCNC(=O)CSc1nc2cc(C(=O)NCCOC)ccc2c(=O)n1Cc1ccc2c(c1)OCO2 | inconclusive [inhibitor, partial curve] | – |
| COc1cccc(N(CC(=O)NC2CCCCC2)C(=O)Cn2nnc(-c3ccc(C)o3)n2)c1 | inconclusive [inhibitor, partial curve] | – |
| Cc1oc(-c2ccc(Cl)cc2)cc1C(=O)NC1CCN(Cc2ccccc2)CC1 | inconclusive [inhibitor, partial curve, poor fit] | – |
| Cc1ccc(Oc2cc(NN3CCCCC3)c([N+](=O)[O-])cc2[N+](=O)[O-])c(Cl)c1 | inconclusive [inhibitor, single point] | – |
| O=S(=O)(CCc1nc2ccccc2[nH]1)c1ccc(Br)cc1 | inconclusive [inhibitor, single point] | – |
| CC(C)(C)OC(=O)NCc1ccc(CNC(=O)c2[nH]cnc2C(=O)NC2CCN(C(=O)OC(C)(C)C)CC2)cc1 | active: 5.86 µM | – |
| COc1cc2c(cc1OC)C1O[C@](CCCCN3C(=O)c4ccccc4C3=O)(C2)OC2=C1C(=O)CC(C)(C)C2 | active: 0.239 µM | – |
| CC(=O)NC12CC3CC(C1)CC(C(=O)N1CCN(S(=O)(=O)c4ccccc4[N+](=O)[O-])CC1)(C3)C2 | inconclusive [inhibitor, single point] | – |
| Cc1ccc(F)cc1NC(=O)N1CCN(c2ccnc3cc(Cl)ccc23)CC1 | inconclusive [inhibitor, partial curve] | – |
| COc1ccccc1N(C)S(=O)(=O)c1ccc(C(=O)Nc2nc(C)cs2)cc1 | inconclusive [inhibitor, partial curve] | – |
| Clc1ccc2nc(CSCc3ccccc3)cn2c1 | – | inactive: 301% |
| O=C(Cn1nnc(-c2cccs2)n1)Nc1ccccc1C(F)(F)F | – | inactive: -0.62% |
| O=C(NC(=S)Nc1ccc(N2CCCC2)cc1)c1ccc(F)cc1 | inconclusive [inhibitor, partial curve, poor fit] | – |
| COc1ccccc1NC(=O)CSc1nc(=O)n2cc(C)ccc2n1 | inconclusive [inhibitor, partial curve] | – |
| COc1ccccc1C(=O)NC(=O)COC(=O)C1CC1C (centres undefined) | – | inactive: 6.12% |
| Cc1nnnn1/C(=C\c1ccccc1)C(=O)OCC(=O)N(C)C1CCS(=O)(=O)C1 (centres undefined) | inconclusive [inhibitor, partial curve, poor fit] | – |
| CCN(CC(=O)Nc1c(F)cccc1F)C(=O)CCCOc1ccc(OC)cc1 | inconclusive [inhibitor, single point] | – |
| CCc1ccc(NC(=O)c2ccc3c(=O)n4c(nc3c2)CCCCC4)cc1 | inconclusive [inhibitor, partial curve] | – |
| Cc1nc2ccccn2c1C(=O)NNS(=O)(=O)c1ccc(C(C)(C)C)cc1 | – | inactive: -1.15% |
| COc1ccc2cc1Oc1ccc(cc1)CC1c3c(cc(OC)c4c3Oc3cc5c(cc3O4)CCNC5C2)CCN1C (centres undefined) | active: 0.522 µM | – |
| CCN1CCN(C(=O)CN(c2ccc(F)c(Cl)c2)S(C)(=O)=O)CC1 | inconclusive [inhibitor, single point] | – |
